56 molecules from article PMC4336329 (PLoS ONE, 2015) can be followed below.

SMILES strings stand for the structures. Hit rate of the full screen: of about 310,000 compounds, about 14,000 (4.5%) showed an effect of 50% or more. Effects have a minus sign here. Some of the results follow.
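Note: peak tail current of the secondary pulse compared with the same well before compound.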

Chain of human ether-à-go-go-related gene (hERG) potassium channel (Q12809 whole entry, looked up): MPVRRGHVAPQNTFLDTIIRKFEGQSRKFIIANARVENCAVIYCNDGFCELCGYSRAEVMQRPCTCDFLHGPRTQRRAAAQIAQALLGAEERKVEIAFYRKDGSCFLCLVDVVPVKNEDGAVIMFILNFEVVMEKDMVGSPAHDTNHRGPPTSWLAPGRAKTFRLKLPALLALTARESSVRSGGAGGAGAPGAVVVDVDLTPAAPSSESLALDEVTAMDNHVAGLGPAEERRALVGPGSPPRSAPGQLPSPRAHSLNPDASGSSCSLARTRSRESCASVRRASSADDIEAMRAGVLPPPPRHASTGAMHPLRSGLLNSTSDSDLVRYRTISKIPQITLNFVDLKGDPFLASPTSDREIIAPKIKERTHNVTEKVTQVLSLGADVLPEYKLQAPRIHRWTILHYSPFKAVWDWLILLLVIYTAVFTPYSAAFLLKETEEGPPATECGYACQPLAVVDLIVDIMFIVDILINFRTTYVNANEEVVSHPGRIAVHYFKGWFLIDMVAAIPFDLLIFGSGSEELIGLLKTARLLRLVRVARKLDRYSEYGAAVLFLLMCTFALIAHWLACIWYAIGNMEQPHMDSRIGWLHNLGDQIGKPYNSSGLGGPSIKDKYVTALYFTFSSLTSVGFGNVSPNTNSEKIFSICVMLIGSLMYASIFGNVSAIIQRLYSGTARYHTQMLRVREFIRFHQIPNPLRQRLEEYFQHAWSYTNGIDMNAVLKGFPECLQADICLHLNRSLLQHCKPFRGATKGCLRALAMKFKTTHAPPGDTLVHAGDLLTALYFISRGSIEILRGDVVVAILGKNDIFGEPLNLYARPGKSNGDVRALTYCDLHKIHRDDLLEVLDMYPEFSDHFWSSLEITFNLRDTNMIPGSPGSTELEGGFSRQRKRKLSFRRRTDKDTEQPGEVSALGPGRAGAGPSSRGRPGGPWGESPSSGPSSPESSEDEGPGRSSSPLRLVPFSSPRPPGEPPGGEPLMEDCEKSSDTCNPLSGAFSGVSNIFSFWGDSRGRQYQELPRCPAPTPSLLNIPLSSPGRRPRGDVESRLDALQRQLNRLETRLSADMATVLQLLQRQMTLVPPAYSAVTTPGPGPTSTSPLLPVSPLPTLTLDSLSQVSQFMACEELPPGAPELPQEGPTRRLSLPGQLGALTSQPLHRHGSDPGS

This experiment concerns the target human ether-à-go-go-related gene (hERG) potassium channel (human, UniProt Q12809). As to the kind of experiment: primary screen, population patch clamp on CHO cells stably expressing hERG.
With `CCOC(=O)c1cc(-c2ccccc2)sc1NC(=O)C(C)OC(=O)c1cccnc1Cl` (centres unmarked), the “hERG current change (%, negative = inhibition) at 10uM” value is on record as -3.24%. As to `C[C@H]1[C@H](c2ccccc2)C[C@@H](C(=O)O)C1(C)C`, the “hERG current change (%, negative = inhibition) at 10uM” value is 12.2%. In the case of `CCOC(=O)C1=C(COc2ccccc2)NC(=O)NC1c1ccc(Cl)cc1` (centres unmarked), the “hERG current change (%, negative = inhibition) at 10uM” value is listed as -21.7%. Regarding `O=C(NC(Cc1ccccc1)C(=O)O)/C(=C/c1cccc([N+](=O)[O-])c1)NC(=O)c1ccco1` (centres unmarked), the “hERG current change (%, negative = inhibition) at 10uM” value was -11.4%. For `COCCn1c(-c2ccc(Cl)cc2)cnc1SCC(=O)NCc1cccs1`, the “hERG current change (%, negative = inhibition) at 10uM” value is -37.6%. As to `COc1cccc(C2(C#N)CCN(C)CC2)c1`, the “hERG current change (%, negative = inhibition) at 10uM” value is on record as 10.5%. Under `COCCn1c(SCC(=O)N2CCCCCC2)nc2c([nH]c3ccccc32)c1=O` stands -5.06%. As for `CCOC(=O)c1c(CC(C)C)csc1NC(=O)COC(=O)c1cc(OC)c(OC)cc1[N+](=O)[O-]`, the “hERG current change (%, negative = inhibition) at 10uM” value was 27.5%. As for `Cc1ccc(C(=O)NCCc2ccccc2)cc1N1CCCC1=O`, the “hERG current change (%, negative = inhibition) at 10uM” value worked out at 17.7%. On to `O=C(CCl)Oc1ccc2occ(C(=O)c3cccs3)c2c1`, for which the “hERG current change (%, negative = inhibition) at 10uM” value is 0.872%. Regarding `COCCNC(=O)C(OC(=O)CC1Sc2ccccc2NC1=O)c1ccncc1` (centres unmarked), the “hERG current change (%, negative = inhibition) at 10uM” value is recorded as -7.65%.

On to `CCc1ccc(C2CC(=O)Nc3c2c(=O)nc2c(C)cccn32)cc1` (centres unmarked), for which the “hERG current change (%, negative = inhibition) at 10uM” value was determined as 10.1%. Turning to `C=CCn1c(O)c(/C(CC)=N/NC(=S)Nc2ccccc2)c(=O)[nH]c1=O`, the “hERG current change (%, negative = inhibition) at 10uM” value came out at 11.8%. Regarding `O=c1[nH][nH]c(C(F)(F)F)c1C=Nc1cccc(Cl)c1`, the “hERG current change (%, negative = inhibition) at 10uM” value stood at 7.39%. Under `Cc1ccc2ccccc2c1NC(=O)c1ccco1` stands -0.144%; under `CN(C)S(=O)(=O)N1CCC(Oc2ccc(C(=O)NCC(C)(C)CO)cc2)CC1`, 5.9%.

As to `COc1cc(NC(=O)C2CCN(S(=O)(=O)c3cnc[nH]3)CC2)cc(OC)c1OC`, the “hERG current change (%, negative = inhibition) at 10uM” value was -1.88%. As for `Cc1ccc(Cl)c(NC(=O)CSc2n[nH]c(=O)n2C2CC2)c1Cl`, the “hERG current change (%, negative = inhibition) at 10uM” value was determined as 8.34%. As for `O=C(Nc1nnc(SCc2ccc(F)cc2)s1)C1CC(=O)N(Cc2ccccc2)C1` (centres unmarked), the “hERG current change (%, negative = inhibition) at 10uM” value was -1.89%.

As to `N#Cc1c(SCC(=O)Nc2ccccc2)nsc1SCC(=O)Nc1ccccc1`, the “hERG current change (%, negative = inhibition) at 10uM” value was determined as 3.79%. For `CCN(c1ccccc1)S(=O)(=O)c1c[nH]c2ccc([N+](=O)[O-])cc12`, the “hERG current change (%, negative = inhibition) at 10uM” value was determined as 9.52%.

For `COc1ccc(OC)c(C(=O)C2COC(=O)C2)c1` (centres unmarked), the “hERG current change (%, negative = inhibition) at 10uM” value stood at 15.8%. Consider `CSc1ccccc1NC(=O)COc1ccc(Cl)cc1Cl`, for which the “hERG current change (%, negative = inhibition) at 10uM” value is -0.82%. Under `COc1ccc(C(=O)N/N=C(\C)CC(=O)Nc2ccc(N(C)C)cc2)c(OC)c1` stands 9.97%; under `CCCn1c(NCc2cccc(OC)c2O)nc2ccccc21`, -18.1%; under `O=C(CNC(=O)c1cccc(Cl)c1)N/N=C/C=C/c1ccccc1`, -11.6%.

Consider `CCc1nnc(NC(=O)CN2CCN(Cc3cccc(Cl)c3)CC2)s1`, for which the “hERG current change (%, negative = inhibition) at 10uM” value is on record as -8.15%. Under `CCc1ccc(CN2CCN(c3ncccn3)CC2)cc1` stands -10.1%; under `CC(C)c1nccn1CCC(=O)O.Cl`, 11.7%. Under `O=[N+]([O-])c1ccccc1CSc1nc2ccccc2o1` stands 13.9%. Under `O=C1c2ccccc2NC(c2ccco2)N1NS(=O)(=O)c1ccccc1` (centres unmarked) stands 7.89%; under `O=C(CN1CCN(S(=O)(=O)c2ccc(F)cc2)CC1)NC1CCCC1`, -8.45%; under `COc1ccccc1-c1nnc2sc(COc3ccccc3)nn12`, -2.14%. With `Cc1ccc(NC(=O)CN2CCc3ccccc3C2)cc1F`, the “hERG current change (%, negative = inhibition) at 10uM” value is 3.07%. In the case of `Fc1ccc(N/N=C/c2ccncc2)c(F)c1`, the “hERG current change (%, negative = inhibition) at 10uM” value is recorded as -9.23%. With `O=C1CSC(=S)N1/N=C/C=C/c1ccccc1`, the “hERG current change (%, negative = inhibition) at 10uM” value was determined as 12.5%. Under `CCC(C)N1C(=O)NC(=O)C2(Cc3cc(C)ccc3N(C)C2)C1=O` (centres unmarked) stands 3.02%; under `Cc1cc(=O)[nH]c(SCC(=O)NC(c2ccccc2)c2ccccc2)n1`, 1.89%; under `COc1ccc(/C=C2\SC(=O)N(CCNC(=O)C3CSC4(C)CCC(=O)N34)C2=O)cc1` (centres unmarked), -27%. Regarding `CCN(CC)C(=O)CN1C(=O)C2CC=C(Cl)CC2C1=O` (centres unmarked), the “hERG current change (%, negative = inhibition) at 10uM” value is given as -3.4%. Turning to `COC(=O)c1cc(=O)n(Cc2cccs2)c(=Nc2ccc(F)cc2)s1`, the “hERG current change (%, negative = inhibition) at 10uM” value worked out at 9.11%. For `CCn1c(O)c(N=N)c2ccccc21`, the “hERG current change (%, negative = inhibition) at 10uM” value worked out at 12.3%. Consider `Cc1ccc(C)c(S(=O)(=O)NCc2ccc(C(=O)N3CCN(C)CC3)cc2)c1`, for which the “hERG current change (%, negative = inhibition) at 10uM” value is reported as -13.7%. Under `CC(NC(=O)c1ccco1)c1ccc2c(c1)OCCO2` (centres unmarked) stands 13.2%; under `OCC[C@@H]1C[C@@H](O)[C@H](O)[C@]2(OCc3ccccc32)O1`, 19%; under `O=S(=O)(Nc1nc2ccccc2nc1NCc1ccco1)c1ccc(F)cc1`, 22.9%. On to `Cc1c(C(=O)NCCS(=O)(=O)N2CCN(c3ccccc3F)CC2)cccc1[N+](=O)[O-]`, for which the “hERG current change (%, negative = inhibition) at 10uM” value is reported as 9.43%. Under `CCOCCCn1c(=NC(=O)c2cccs2)c(C#N)cc2c(=O)n3ccccc3nc21` stands -76.9%; under `CCOC(=O)c1cnc2ccc(C(=O)OC)cc2c1NCCN1CCOCC1`, -30.2%. As to `COC(=O)[C@@]12CCCN1[C@H](c1ccc(-c3ccc(OC)cc3)cc1)[C@@H]1C(=O)N(C)C(=O)[C@@H]12.O=C(O)C(F)(F)F`, the “hERG current change (%, negative = inhibition) at 10uM” value stood at 3.82%. Take `Cc1ccccc1N(CC(=O)Nc1ccccc1C(=O)NCc1ccco1)S(=O)(=O)c1ccccc1`: the “hERG current change (%, negative = inhibition) at 10uM” value is reported as -5.08%. Take `CN(C)CCN(Cc1cccs1)S(=O)(=O)c1csc(C(N)=O)c1`: the “hERG current change (%, negative = inhibition) at 10uM” value came to 0.567%. `COc1ccc(-c2c/c(=N\c3nc(-c4ccccc4)c(C)s3)c3ccccc3o2)cc1O`: the “hERG current change (%, negative = inhibition) at 10uM” value was 4.17%. Under `O=C(Oc1cc2oc(=O)c3c(c2cc1Cl)CCCC3)c1cccs1` stands 15.9%; under `O=C(c1cc(S(=O)(=O)N2CCOCC2)ccc1F)N1CCC2(CC1)OCCO2`, -8.99%; under `CNc1nc(NC)nc(-n2c(C(F)(F)F)nc3ccccc32)n1`, -17%.
